Records with an inconclusive call do not appear. A number of entries come with more than one value. The list is limited to them. There may be further records. Results that share an entry are repeats in other runs, samples, wells, individuals or studies. Signs of the kind (2×) count equal records among those shown.
Tested on: MX-1 breast xenograft, intrarenal, nude mice, tumor weight
Experiment: NCI In Vivo Anticancer Drug Screen. Data for tumor model Human Mammary Carcinoma MX-1 Xenograft (intrarenal inoculation) in NU/NU BALB/C (nude) mice
Details: endpoint: mean tumor weight change, higher = larger tumour
Description: The antitumor activity of compounds was measured in mice bearing transplantable tumors. Survival or tumor size were measured and the results are expressed as the measurement made in the treated group (T) divided by the measurement made in the vehicle treated control group (C). The tumor model used in this assay is Human Mammary Carcinoma MX-1 Xenograft (intrarenal inoculation) in NU/NU BALB/C (nude) mice

[1] = dose: 25.0 mg/kg/injection, schedule: Q04DX003 (ip), vehicle: distilled water + Tween-80
[2] = dose: 75.0 mg/kg/injection, schedule: Q04DX003 (ip), vehicle: saline with Tween-80
[3] = dose: 600.0 mg/kg/injection, schedule: Q04DX003 (ip), vehicle: saline with Tween-80

Structure (SMILES): COc1cc([C@@H]2c3cc4c(cc3[C@@H](OC3OC5CO[C@@H](c6cccs6)OC5C(O)C3O)[C@H]3COC(=O)[C@H]23)OCO4)cc(OC)c1O (stereo partly drawn)
- T/C (dose: 1.1 mg/kg/injection, schedule: Q01DX010 (ip), vehicle: saline): 47 % of control and 79 % of control
- T/C (dose: 2.19 mg/kg/injection, schedule: Q01DX010 (ip), vehicle: saline): 28 % of control and 121 % of control
- T/C (dose: 4.38 mg/kg/injection, schedule: Q01DX010 (ip), vehicle: saline): 11 % of control and 121 % of control

Structure (SMILES): COc1cc2c(oc(=O)c3cc(C)cc(OC)c32)c2c(C3OC(C)C(O)C(C)(O)C3O)ccc(O)c12 (stereo not drawn)
- T/C (dose: 25.0 mg/kg/injection, schedule: Q04DX003 (ip), vehicle: DMSO): 79 % of control and 105 % of control

Structure (SMILES): O=C1C=CC(=CC=C2C=CN(CCCCCCCCCCCO)C=C2)C=C1
- T/C (dose: 100.0 mg/kg/injection, schedule: Q04DX003 (ip), vehicle: saline with Tween-80): 35 % of control and 122 % of control

Structure (SMILES): Nc1ncnc2c1ncn2C1OC(CO)C(O)C1O (stereo not drawn)
- T/C (dose: 37.5 mg/kg/injection, schedule: Q04DX003 (sc), vehicle: saline): 58 % of control and 110 % of control
- T/C (dose: 75.0 mg/kg/injection, schedule: Q04DX003 (sc), vehicle: saline): 31 % of control and 65 % of control

Structure (SMILES): N#Cc1c(-c2ccc(F)cc2)c(-c2ccc(F)cc2)nn(CCO)c1=O
- T/C [1]: 67 % of control and 102 % of control
- T/C (dose: 100.0 mg/kg/injection, schedule: Q04DX003 (ip), vehicle: distilled water + Tween-80): 49 % of control, 87 % of control, 109 % of control
- T/C (dose: 200.0 mg/kg/injection, schedule: Q04DX003 (ip), vehicle: distilled water + Tween-80): 44 % of control, 68 % of control, 74 % of control

Structure (SMILES): CN(C)C1C(=O)C(C(=O)NP(=O)(NCCCO)N(CCCl)CCCl)=C(O)C2(O)C(=O)C3=C(O)c4c(O)cccc4C(C)(O)C3CC12 (stereo not drawn)
- T/C (dose: 150.0 mg/kg/injection, schedule: Q04DX003 (sc), vehicle: saline with Tween-80): -100 % of control and -34 % of control

Structure (SMILES): CN(N=O)C(N)=O
- T/C (dose: 100.0 mg/kg/injection, schedule: Q04DX003 (sc), vehicle: saline): -19 % of control and 92 % of control

Structure (SMILES): O=C1C=C(N2CC2)C(=O)C(N2CC2)=C1N1CC1
- T/C (dose: 50.0 micrograms/kg/injection, schedule: Q04DX003 (ip), vehicle: saline): -55 % of control, 3 % of control, 73 % of control
- T/C (dose: 100.0 micrograms/kg/injection, schedule: Q04DX003 (ip), vehicle: saline): -87 % of control, 1 % of control, 30 % of control
- T/C (dose: 200.0 micrograms/kg/injection, schedule: Q04DX003 (ip), vehicle: saline): -100 % of control (2×) and 7 % of control

Structure (SMILES): COC(COC(=O)N1CCN(C=O)CC1)C1=C(N2CC2)C(=O)C(C)=C(N2CC2)C1=O (stereo not drawn)
- T/C (dose: 6.0 mg/kg/injection, schedule: Q04DX003 (ip), vehicle: saline): -73 % of control and -3 % of control
- T/C (dose: 12.0 mg/kg/injection, schedule: Q04DX003 (ip), vehicle: saline): -70 % of control and 13 % of control

Structure (SMILES): COc1cc(NCc2ccc3nc(N)nc(N)c3c2C)cc(OC)c1OC
- T/C (dose: 60.0 mg/kg/injection, schedule: Q04DX003 (ip), vehicle: Klucel (hydroxypropylcellulose) (HPC)): 75 % of control and 103 % of control

Structure (SMILES): O=P1(N(CCCl)CCCl)NCCCO1 (stereo not drawn)
- T/C (dose: 100.0 mg/kg/injection, schedule: Q04DX003 (ip), vehicle: saline): -100 % of control and -69 % of control

Structure (SMILES): NS(=O)(=O)OCCCCCCCOS(N)(=O)=O
- T/C (dose: 37.5 mg/kg/injection, schedule: Q04DX003 (ip), vehicle: saline with Tween-80): -42 % of control and 13 % of control
- T/C [2]: -81 % of control and 3 % of control

Structure (SMILES): COC(=O)c1ccc(N=NN(C)COC(C)=O)cc1
- T/C (dose: 144.0 mg/kg/injection, schedule: Q04DX003 (ip), vehicle: Klucel (hydroxypropylcellulose) (HPC)): 62 % of control and 103 % of control
- T/C (dose: 240.0 mg/kg/injection, schedule: Q04DX003 (ip), vehicle: Klucel (hydroxypropylcellulose) (HPC)): -100 % of control and 25 % of control

Structure (SMILES): NC(Cc1ccc(N(CCCl)Cc2ccccc2)cc1)C(=O)O (stereo not drawn)
- T/C (dose: 50.0 mg/kg/injection, schedule: Q04DX003 (ip), vehicle: saline with Tween-80): 17 % of control and 56 % of control

Structure (SMILES): C=C(C)/C([O-])=N/[N+](C)(C)CC(O)CCCCCCCCCCCC (stereo not drawn)
- T/C (dose: 160.0 mg/kg/injection, schedule: Q04DX003 (ip), vehicle: Klucel (hydroxypropylcellulose) (HPC)): 69 % of control and 121 % of control

Structure (SMILES): Cc1ccc2c(c1)n([O-])c1cc(Cl)ccc1[n+]2=O
- T/C [2]: 81 % of control and 107 % of control
- T/C [3]: 29 % of control and 61 % of control

Structure (SMILES): O=c1[nH]c(=O)n(C2CC(O)C(CO)O2)cc1F (stereo not drawn)
- T/C (dose: 50.0 mg/kg/injection, schedule: Q01DX010 (sc), vehicle: water): 7 % of control and 44 % of control

Structure (SMILES): O=S1(=O)CS(=O)(=O)OCCO1
- T/C (dose: 75.0 mg/kg/injection, schedule: Q04DX003 (sc), vehicle: Klucel (hydroxypropylcellulose) (HPC)): 12 % of control and 59 % of control

Structure (SMILES): Cc1ccc(C(=O)NC2C(=O)NC(C(C)C)C(=O)N3CCCC3C(=O)N(C)CC(=O)N(C)C(C(C)C)C(=O)OC2C)c2c1Oc1c(c(C(=O)NC3C(=O)NC(C(C)C)C(=O)N4CCCC4C(=O)N(C)CC(=O)N(C)C(C(C)C)C(=O)OC3C)c3nc(-c4ccccc4)c(=O)oc3c1C)N2 (stereo not drawn)
- T/C (dose: 0.5 mg/kg/injection, schedule: Q04DX003 (ip), vehicle: water): 26 % of control and 60 % of control

Structure (SMILES): N[C@@H](Cc1ccc(N(CCCl)CCCl)cc1)C(=O)O
- T/C (dose: 1.0 mg/kg/injection, schedule: Q04DX003 (ip), vehicle: saline with Tween-80): -91 % of control and 10 % of control

Structure (SMILES): CN(Cc1cnc2nc(N)nc(N)c2n1)c1ccc(C(=O)N[C@@H](CCC(=O)O)C(=O)O)cc1
- T/C (dose: 12.0 mg/kg/injection, schedule: Q04DX003 (ip), vehicle: sodium bicarbonate): 111 % of control and 168 % of control
- T/C (dose: 27.0 mg/kg/injection, schedule: Q04DX003 (ip), vehicle: sodium bicarbonate): 16 % of control and 72 % of control

Structure (SMILES): CCCCN1C(=O)N(c2ccc(OCC)cc2)C2N(CCCC)C1C(C)(C)C2(C)C (stereo not drawn)
- T/C (dose: 120.0 mg/kg/injection, schedule: Q04DX003 (ip), vehicle: saline with Tween-80): 58 % of control and 86 % of control

Structure (SMILES): CO[C@H](/C(C)=C/C=C/C(C)=C/c1coc(C)n1)[C@H](C)[C@H]1C[C@@H](O)[C@@]2(C)O[C@H]2/C=C/[C@@H](C)[C@@H]2C[C@@H](CC(=O)O2)C[C@H]2O[C@@H]2C(=O)O1
- T/C (dose: 0.13 mg/kg/injection, schedule: Q04DX003 (sc), vehicle: Klucel (hydroxypropylcellulose) (HPC)): 73 % of control and 99 % of control

Structure (SMILES): N=C(N)c1nn(C2OC(CO)C(O)C2O)c2nc[nH]c(=O)c12 (stereo not drawn)
- T/C (dose: 50.0 mg/kg/injection, schedule: Q04DX003 (ip), vehicle: Klucel + Tween-80): 27 % of control and 86 % of control
- T/C (dose: 100.0 mg/kg/injection, schedule: Q04DX003 (ip), vehicle: Klucel + Tween-80): 9 % of control and 36 % of control

Structure (SMILES): NC(CNC(=O)CBr)C(=O)O (stereo not drawn)
- T/C (dose: 75.0 mg/kg/injection, schedule: Q04DX003 (sc), vehicle: water): 43 % of control and 84 % of control
- T/C (dose: 100.0 mg/kg/injection, schedule: Q04DX003 (sc), vehicle: water): 52 % of control and 91 % of control

Structure (SMILES): CC[C@@H](C)[C@H]([C@H](CC(=O)N1CCC[C@@H]1[C@@H](OC)[C@H](C)C(=O)N[C@H](Cc1ccccc1)c1nccs1)OC)N(C)C(=O)[C@H](NC(=O)[C@@H](C(C)C)N(C)C)C(C)C
- T/C (dose: 6.25 micrograms/kg/injection, schedule: Q04DX003 (ip), vehicle: saline + alcohol): 69 % of control and 178 % of control

Structure (SMILES): Oc1ccc(/C=N/N=C/c2ccc(O)c(O)c2)cc1O
- T/C [3]: 36 % of control and 103 % of control

Structure (SMILES): C=Cc1cc(OC)c2c(c1)c(=O)oc1c2cc(OC)c2c(O)ccc(C3OC(C(C)O)C(O)C3O)c21 (stereo not drawn)
- T/C (dose: 150.0 mg/kg/injection, schedule: Q04DX003 (ip), vehicle: Klucel (hydroxypropylcellulose) (HPC)): 14 % of control, 29 % of control, 49 % of control

Structure (SMILES): CO[C@@]12[C@@H]3N[C@@H]3CN1C1=C(C(=O)C(NCC3CCCO3)=C(C)C1=O)[C@@H]2COC(N)=O (stereo partly drawn)
- T/C [1]: -95 % of control and -10 % of control

Reference: PubChem BioAssay AID298 (DTP/NCI, 2004)
